This is one part of the list.
T1: UNK ZnF1-6 (called full-length) (human, UniProt Q9C0B0 30-357)
T1 sequence: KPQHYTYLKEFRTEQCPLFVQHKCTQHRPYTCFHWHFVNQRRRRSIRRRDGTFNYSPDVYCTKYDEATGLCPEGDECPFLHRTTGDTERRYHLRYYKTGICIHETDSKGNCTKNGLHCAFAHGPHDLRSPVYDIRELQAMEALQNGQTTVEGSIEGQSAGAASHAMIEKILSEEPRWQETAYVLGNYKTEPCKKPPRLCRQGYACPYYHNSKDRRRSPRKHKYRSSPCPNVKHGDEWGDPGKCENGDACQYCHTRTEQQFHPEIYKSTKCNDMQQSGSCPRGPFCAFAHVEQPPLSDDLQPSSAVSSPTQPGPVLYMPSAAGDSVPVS

B1: chr1:213241217:213241334:+|CDS|ENSG00000136643|unk|total|mutant (ssRNA)
RNA: GGGAGUUCUACAGUCCGACGAUCAGUUCUCCAAGAACAUCAGAUUCCCUCAGCCGAUCAAAAAACCGCCCCAUGGAAUUCUUCCGGACCGACAGUAAGGACCGCGCAAGUGAACUCCUGGGACUUGACUUUGGAGAAAAAUUGCAACAGAGGAUUGAGCAUCA
B2: ENSG00000107863:be:win_2901|CDS|ENSG00000107863|bound_else_gene|NA|bound_elsewhere_windowed (ssRNA)
RNA: GGGAGUUCUACAGUCCGACGAUCUCAUUCACUUUACCUGUACAAAGAUAAAAGAGAGCAGACGACUCCGUCUGAGGAAGAGCAGCCCAUCAGUGUUAAUGCUUGCUUGAUAGACAUCUCUUACAGUGAGACCAAGAGGAAAAACAACAGAGGAUUGAGCAUCA
B3: chr6:75256125:75256201:-|CDS_3pUTR|ENSG00000112697|msi1_unk|FALSE|overlapping (ssRNA)
RNA: GGGAGUUCUACAGUCCGACGAUCUUUGGGGAUUGCUUACAUCGCUGUUGGAUCCAUCUCCUUCCUUCUGGGAGUUGUACUGCUAGUAAUUAAUCAUAAAUAUAGAAACAGUAGUAAUACAGCUGACAUUACCAUUUAAUUUUACAACAGAGGAUUGAGCAUCA
B4: ENSG00000050165:stop:overlap|stop_codon|ENSG00000050165|stop_codon|NA|stop_codon (ssRNA)
RNA: GGGAGUUCUACAGUCCGACGAUCAGAUGGCGCUGAGGGAGCCUGCGGCUGCCGCCGCUGCACUGCUGGGAGGGGAAGAGAUUUAGAUCUGGACCAGGCUGUGGGUAGAUGUGCAAUAGAAAUAGCUAAUUUAUUUCCCCAGGUCAACAGAGGAUUGAGCAUCA
B5: chr7:100040983:100041096:+|3pUTR|ENSG00000106261|unk|FALSE|bound_elsewhere (ssRNA)
RNA: GGGAGUUCUACAGUCCGACGAUCGAUAGCCAAGCAAAAUCAGUAAUUAUUUUAAAAUGAACAUAUGUAUUUUUAUUAACUUUUAGUUAAAUACAGAUUUUACAACGAGGUCAGCAUAAGCCUAAAUCUAUAUAGAGGGCUAACCAACAGAGGAUUGAGCAUCA
B6: chr17:28897780:28898440:-|three_prime_utr|ENSG00000167536|control|control|control (ssRNA)
RNA: GGGAGUUCUACAGUCCGACGAUCUGAAGGAAUAAUGGGUGAUUAUUUCUUCCUGAGAGUGACAGUAACCCCAGAUGGAGAGAUAGGGGUAUGCUAGACACUGUGCUUCUCGGAAAUUUGGAUGUAGUAUUUUCAGGCCCCACCCAACAGAGGAUUGAGCAUCA
B7: ENSG00000198589:be:win_7651|CDS|ENSG00000198589|bound_else_gene|NA|bound_elsewhere_windowed (ssRNA)
RNA: GGGAGUUCUACAGUCCGACGAUCGACCAGCCAUACCAGCUGCCAGUGGAAAUCGAUCCUCUCAUAGCCAGCAAUACAGGAAUGCACAGGAGGCAAAUCACUGACCUUUUAGACCAAAGUAUUCAAGUGCAUUCCCAGUGCUUUCAACAGAGGAUUGAGCAUCA
B8: chr7:39987650:39987751:+|CDS|ENSG00000065883|unk|FALSE|unique (ssRNA)
RNA: GGGAGUUCUACAGUCCGACGAUCUCUAGGCAUUCAAGAUCUCGUAGCAGGCACAGAUUGUCUAGAUCCAGAAGUCGUCAUUCUAGUAUUUCUCCUAGCACACUAACUCUGAAGAGUAGCCUGGCAGCUGAAUUGAACAAGAAUCAACAGAGGAUUGAGCAUCA
B9: chr1:48532853:48534172:-|three_prime_utr|ENSG00000186094|control|control|control (ssRNA)
RNA: GGGAGUUCUACAGUCCGACGAUCGUCUUAUGGGGACAGGAGCAUGCAUUUUCUGCUGGGGAAUGAAAUUAAUCACUCUUCUCUAGCUUCCAAGGAUUUGUGGAUUAAUGCAUAGGCUAGUGAAAGGGAAGGGAUACAAUGAGACAACAGAGGAUUGAGCAUCA
B10: chr19:42297191:42297292:-|CDS|ENSG00000079462|unk|total|mutant (ssRNA)
RNA: GGGAGUUCUACAGUCCGACGAUCCCGACAGGUGAACGAGCUGGUACGGGCGGCACUGGCUGGCCACCCUCGGGCCCACUUCCCCGAUGCCGACCCUGGCUUUGUGCACUCAGAUGGCACCAUCAGCCAUCAUGACAUGUAUGACAACAGAGGAUUGAGCAUCA
B11: chr22:29695108:29695209:+|3pUTR|ENSG00000186575|msi1|total|mutant (ssRNA)
RNA: GGGAGUUCUACAGUCCGACGAUCGUGUGUGUGUGUCUUGCACUCCAGAGCUGACCUCCACCGCCCAGCCUGGGAAGUCAUUGCCGGGAGUGAGACACUGAAGCCCUGAGAAGCCAGUGCCAUCAUCCCCACCCCGCCCAGGGUCAACAGAGGAUUGAGCAUCA
B12: ENSG00000107863:be:win_2251|CDS|ENSG00000107863|bound_else_gene|NA|bound_elsewhere_windowed (ssRNA)
RNA: GGGAGUUCUACAGUCCGACGAUCUUAAGGCAUCAGUCUUACAUCUUGGCAGUAAAUGACCAGGAGACCGGGUCAGACACUACCUGCUGGCUGCCCAAUGAUGCACGUCGAGAGGUCCACAUAAAAAGAAUGGAGGAAAGAAAACAACAGAGGAUUGAGCAUCA
B13: chr5:6669452:6669553:+|3pUTR|ENSG00000145545|unk|FALSE|unique (ssRNA)
RNA: GGGAGUUCUACAGUCCGACGAUCCAUCUCAUCUGGAGUUUUUAAAUGCCAUUUGUUUCAGUUGUCUUUAACAACAUAAUAAAUAGACUUUGCCAUUUAACAAGGUAGCUCAAAUUCUUUUACUAAUUGUUACAUCGAAACAUUCAACAGAGGAUUGAGCAUCA
B14: chr13:99866285:99866388:+|CDS|ENSG00000125246|unk|total|mutant (ssRNA)
RNA: GGGAGUUCUACAGUCCGACGAUCUAUUCUCUACGCCCGGCAAAAGAUUGUUGUCACCGCGAAAGCCUUUGGUCUCCAAGCCACCGAUCUGGUGUACAUUGACUUUCGAGAUGGAGCUGGGCUGCUCCGACAGUCACGAGAAGGCAACAGAGGAUUGAGCAUCA

These binders were tested against T1, UNK ZnF1-6 (called full-length) (assay: nsRBNS (natural sequence RNA bind-n-seq); RBNS binding buffer (assumed for nsRBNS): 25 mM Tris pH 7.5, 150 mM KCl, 3 mM MgCl2, 0.01% Triton X-100, 500 ug/ml BSA, 20 U/ml SUPERase-In, 4 C; UNK is unkempt and MSI1 is Musashi-1; names of the RNAs are library labels; protein concentration not given here; high values mean tight binding).
Binder B1 has a binding signal of 0.721 enrichment R. Work on B2 yielded a binding signal of 0.476 enrichment R. Binder B3 has a binding signal of 3.18 enrichment R. For B4, the binding signal was 2.99 enrichment R. In the case of B5, the binding signal is reported as 2.5 enrichment R. With B6 the binding signal was 0.608 enrichment R. For B7, the binding signal was 1.05 enrichment R. With B8 the binding signal was 0.538 enrichment R. With B9 the binding signal was 0.93 enrichment R. Binder B10 has a binding signal of 0.644 enrichment R. Work on B11 yielded a binding signal of 0.749 enrichment R. With B12 the binding signal was 0.801 enrichment R. B13 showed a binding signal of 0.535 enrichment R. B14 was tested, and the binding signal was 0.414 enrichment R.

— paper PMC12136788
